The results in this text go back to US12472166B2, “Inhibition of mycobacterial type VII secretion” (priority 2019, dated 2025).

For data set [1] the following is noted: 30 minutes at 37° C. How it is done: To assess the metabolic stability of the drugs in the human body, selected compounds I-1, I-3, I-5, I-33, I-35, I-36 and I-37 were incubated with human liver microsomes for 30 minutes at 37° C., after which the remaining amount of compound was quantitatively determined by LC-MS (Table 3).
Each test compound (15 μM; from stock solutions of 5 mM in acetonitrile) was mixed with 0.5 mg/mL human liver microsome (Xenotech) in reaction buffer (100 μM NADPH, 10 μM glucose 6-phosphate, 0.5 U/mL glucose 6-phosphate dehydrogenase, 3.3 mM MgCl2 and 5 mM EDTA, 100 mM potassium phosphate buffer, pH 7.4. The resulting mixture was incubated at 37° C. After 30 minutes, the samples were cooled on ice, centrifuged and the supernatant was analyzed by LC-MS (Column: Luna 5 μm C18, 100 Å, 150×4.6 mm; MeCN/H2O, 0.1% formic acid; Table 3). Calculations and the experiment set-up are based on Kerns, E. H. et al., Drug-like Properties: Concepts, Structure Design and Methods; from ADME to Toxicity Optimization, Academic Press, 2008. The intrinsic clearance values are calculated based on the teachings in Obach, R. S., Drug Metabolism and Disposition 1999, 27(110, 1350-1359.

Data set [2] deals with M. marinum WT bacteria expressing rfp. Conditions: in vivo. How it is done:
To assess anti-bacterial activity of the compounds in an animal model, zebra-fish embryos were infected by injection of WT M. marinum into the cardinal vein. The bacteria express rfp, which enables the quantification of infection in vivo by measuring red fluorescence. After injection of the bacteria into the fish, the infection was allowed to establish for 20 h. Then, the test compounds or DMSO control were added for three days before the infection was quantified by measuring fluorescence in each fish. […] FIG. 8: Zebra fish embryo infection experiments. Dechorionated zebra fish embryos were one day post fertilization infected by microinjection into the cardinal vein with 70 M. marinum WT bacteria expressing rfp. 20 h after infection, the compounds were added to the fish water at the indicated concentrations. After 4 days post infection the fish were imaged on a fluorescent microscope (A) and red pixels were quantified (B). As control served non-treated fish and non-infected fish. The fish water of all groups contained equal amounts of DMSO. Each data point represents a single fish. […] Statistical analysis was determined by ANOVA testing by comparing each group to the non-treated group of fish. p>0.05, not significant, not indicated. p<0.05=*, p<0.01=**, p<0.001=***.

`O=C(CSc1nc(-c2ccccc2)ns1)NCCC(F)(F)F` [Compound I-35]: in data set [1], the “conversion by the human liver enzymes” value is reported as “relatively slowly converted”.

Take `CCCNC(=O)CSc1nc(-c2ccccc2)ns1` [Compound I-1]: in data set [1], the “conversion by the human liver enzymes” value is recorded as “relatively slowly converted”. Moreover, in data set [2], the “concentration from which significant reduction of infection starts” value worked out at 1 µM.

In the case of `O=C(CSc1nc(-c2ccc(Cl)cc2)ns1)NCCC(F)(F)F` [Compound I-37], in data set [1], the “conversion by the human liver enzymes” value is recorded as “relatively slowly converted”.

With `O=C(COc1nc(-c2ccccc2)ns1)NC1CCCC1` [Compound I-33], the “conversion by the human liver enzymes” value in data set [1] is recorded as “relatively slowly converted”.

For `O=C(CSc1nc(-c2ccccc2)ns1)NC1CCCC1` [Compound I-5], the “conversion by the human liver enzymes” value in data set [1] is listed as “relatively slowly converted”. Further, the “concentration from which significant reduction of infection starts” value in data set [2] was found to be 1 µM.

On to `CCCNC(=O)CSc1nc(-c2ccc(OC)cc2)ns1` [Compound I-3], for which the “conversion by the human liver enzymes” value in data set [1] is given as “exception”. For the same compound, the “concentration from which significant reduction of infection starts” value in data set [2] was determined as 1 µM.

For the compound `CCCNC(=O)CSc1nc(-c2ccc(Cl)cc2)ns1` [Compound I-36], in data set [1], the “conversion by the human liver enzymes” value is “relatively slowly converted”.

Take `COc1ccc(-c2nsc(SCC(=O)NC3CCCC3)n2)cc1` [Compound I-12]: in data set [2], the “reduction of infection as compared to DMSO treated fish” value is on record as 50 fold.
